The record followed here is US20190314531A1 (Johns Hopkins, published 2019).

This assay has as its target T1, recombinant human PD-L1(B7-H1)-His-tag protein (catalog #9049-B7, R&D systems) (human, UniProt Q9NZQ7 part only).
T1 construct: Bought; also called PD-L1-His-tag; not shown: His-tag
Kind of assay: FRET binding assay, PD-L1-His-tag titrated on PD-1-Ig.

B1: Recombinant Human PD-1 Fc chimera Protein (catalog #1086-PD-050, R&D systems) (Fc fusion)
chain: not shown
notes: Bought; also called PD-1-Ig; not shown: Fc part (detected with anti-human IgG)
On to B1, for which the Kd – broadly, the free concentration of one partner at which half of the binding sites on the other are occupied at equilibrium, for simple one-to-one binding – was found to be 69.7 nM.
